From ChEMBL document CHEMBL5606460, “ASAP - DENV-2 NS2B-NS3 protease fluorescence single point” (2024)
The whole screen tested about 2,000 compounds, of which about 110 (5.5%) showed an effect of 50% or more. Some of the results follow.

Target: Genome polyprotein (dengue virus type 2) (UniProt P29990)
[1] = Thailand/16681/1984, Concentration 25.0 uM, Number of replicates 1.0

SMILES: CCN(C(=O)C1CCN(c2ccc(C=O)cc2)CC1)C1C2CC3CC(C2)CC1C3 (stereo not given)
- inhibition [1]: 14.3%

SMILES: Cc1cc(I)ccc1NC(=O)C1CCN(c2ccc(C=O)cc2)CC1
- inhibition [1]: 2.76%

SMILES: Cn1cncc1CN1CCC(c2c[nH]c3cccnc23)CC1
- inhibition (Thailand/16681/1984, Concentration 49.5 uM, Number of replicates 2.0, Standard deviation 0.15351466949171616 %): -5.61%
- inhibition (Thailand/16681/1984, Concentration 99.01 uM, Number of replicates 2.0, Standard deviation 0.4102628182016519 %): -5.32%
- inhibition (Thailand/16681/1984, Concentration 198.0 uM, Number of replicates 2.0, Standard deviation 0.591810536749722 %): -5.54%

SMILES: CC(C)(C)N(Cc1ccc(Br)cc1)C(=O)C1CCN(c2ccc(C=O)cc2)CC1
- inhibition [1]: 16.6%

SMILES: O=Cc1ccc(N2CCC(C(=O)Nc3ccc(I)cc3F)CC2)cc1
- inhibition [1]: 10.5%

SMILES: Cc1cc(CO)c2cccc(C[C@H](NC(=O)c3nc(C4CCNCC4)oc3C)C(=O)O)c2n1
- inhibition (Thailand/16681/1984, Concentration 49.95 uM, Number of replicates 2.0, Standard deviation 0.8080216779744858 %): 2.79%
- inhibition (Thailand/16681/1984, Concentration 99.9 uM, Number of replicates 2.0, Standard deviation 0.4573836691864076 %): 10%

SMILES: Cc1cnccc1NC(=O)c1ccc(Cn2cccn2)o1
- inhibition (Thailand/16681/1984, Concentration 49.5 uM, Number of replicates 2.0, Standard deviation 4.385944523915964 %): -2.69%
- inhibition (Thailand/16681/1984, Concentration 99.01 uM, Number of replicates 2.0, Standard deviation 4.977047473031105 %): -3.61%
- inhibition (Thailand/16681/1984, Concentration 198.0 uM, Number of replicates 2.0, Standard deviation 5.602921119089111 %): -2.76%

SMILES: c1ccc2c(CN3CCC(c4cnco4)CC3)c[nH]c2c1
- inhibition (Thailand/16681/1984, Concentration 49.5 uM, Number of replicates 2.0, Standard deviation 0.40536805180299074 %): -4.68%
- inhibition (Thailand/16681/1984, Concentration 99.01 uM, Number of replicates 2.0, Standard deviation 1.6192470221979818 %): -4.3%
- inhibition (Thailand/16681/1984, Concentration 198.0 uM, Number of replicates 2.0, Standard deviation 0.5019264817414489 %): -3.3%

SMILES: O=Cc1ccc(N2CCC(C(=O)N3CCc4ccc([N+](=O)[O-])cc4C3)CC2)cc1
- inhibition [1]: 16.6%

SMILES: Cc1cc(CO)c2cccc(Cc3ccccc3NC(=O)c3nc(-c4ccccc4)oc3C(F)(F)F)c2n1
- inhibition (Thailand/16681/1984, Concentration 49.95 uM, Number of replicates 2.0, Standard deviation 1.7717479756893137 %): 4.23%
- inhibition (Thailand/16681/1984, Concentration 99.9 uM, Number of replicates 2.0, Standard deviation 1.406874278760802 %): 8.66%

SMILES: CNC(=O)c1ccc2n1CCN(S(=O)(=O)c1cnn(CC3CC3)c1)[C@@H]2C
- inhibition (Thailand/16681/1984, Concentration 49.5 uM, Number of replicates 2.0, Standard deviation 0.5811994670445131 %): -0.194%
- inhibition (Thailand/16681/1984, Concentration 99.01 uM, Number of replicates 2.0, Standard deviation 0.831933566036596 %): -0.495%
- inhibition (Thailand/16681/1984, Concentration 198.0 uM, Number of replicates 2.0, Standard deviation 1.0454246971724366 %): -1.2%

SMILES: O=Cc1ccc(N2CCC(C(=O)N3CCN(C(=O)[C@H]4COc5ccccc5O4)CC3)CC2)cc1
- inhibition [1]: 13%

SMILES: COc1ccc(NC(C)=O)cc1NC(=O)C1CCN(c2ccc(C=O)cc2)CC1
- inhibition [1]: 14.3%

SMILES: Cc1cc(CO)c2cccc(C[C@H](NC(=O)Cc3c[nH]c4ccccc34)C(=O)O)c2n1
- inhibition (Thailand/16681/1984, Concentration 49.95 uM, Number of replicates 2.0, Standard deviation 0.094584440141602 %): 2.82%
- inhibition (Thailand/16681/1984, Concentration 99.9 uM, Number of replicates 2.0, Standard deviation 1.2728368480777283 %): 10.9%

SMILES: N#Cc1cccc(-c2nc3c(C(=O)NCc4ccccc4)cc(Cl)cc3[nH]2)c1
- inhibition (Thailand/16681/1984, Concentration 99.5 uM, Number of replicates 2.0, Standard deviation 0.16663009439873022 %): -4.99%
- inhibition (Thailand/16681/1984, Concentration 295.6 uM, Number of replicates 2.0, Standard deviation 26.28702583112172 %): 8.64%

SMILES: CCCC[C@@H](NC(=O)OC(C)(C)C)C(=O)N[C@@H](C(=O)NCc1ccc(CN)cc1)c1ccc(OCc2ccccc2)cc1
- inhibition (Thailand/16681/1984, Concentration 49.5 uM, Number of replicates 2.0, Standard deviation 1.8529777654117539 %): 94%
- inhibition (Thailand/16681/1984, Concentration 99.01 uM, Number of replicates 2.0, Standard deviation 0.005880328304239935 %): 100%
- inhibition (Thailand/16681/1984, Concentration 198.0 uM, Number of replicates 2.0, Standard deviation 0.014706215557209234 %): 99.9%

SMILES: Cc1nn(CC(=O)N[C@H]2CCS(=O)(=O)C2)cc1C1CCNCC1
- inhibition (Thailand/16681/1984, Concentration 49.5 uM, Number of replicates 2.0, Standard deviation 0.9549826811101519 %): -3.17%
- inhibition (Thailand/16681/1984, Concentration 99.01 uM, Number of replicates 2.0, Standard deviation 1.2465770012319246 %): -2.73%
- inhibition (Thailand/16681/1984, Concentration 198.0 uM, Number of replicates 2.0, Standard deviation 0.2948392902823235 %): -1.46%

SMILES: CN(C)c1ccccc1CNC(=O)C1CCN(c2ccc(C=O)cc2)CC1
- inhibition [1]: 13.8%

SMILES: CCOc1ccc(N2CCN(C(=O)C3CCN(c4ccc(C=O)cc4)CC3)CC2)cc1
- inhibition [1]: 12.1%

SMILES: CCCCCC(=O)N[C@H](C(=O)NCc1ccc(NC(=N)N)cc1)c1ccc(OCc2ccccc2)cc1
- inhibition (Thailand/16681/1984, Concentration 49.5 uM, Number of replicates 2.0, Standard deviation 0.35669280924008506 %): 0.374%
- inhibition (Thailand/16681/1984, Concentration 99.01 uM, Number of replicates 2.0, Standard deviation 0.1951319007042223 %): 2.1%
- inhibition (Thailand/16681/1984, Concentration 198.0 uM, Number of replicates 2.0, Standard deviation 2.320076788942105 %): 11.9%

SMILES: CCN(Cc1ccc(C(F)(F)F)cc1)C(=O)C1CCN(c2ccc(C=O)cc2)CC1
- inhibition [1]: 12.1%

SMILES: O=Cc1ccc(N2CCC(C(=O)N3CCN(Cc4cc(F)ccc4F)CC3)CC2)cc1
- inhibition [1]: 10.9%
